Assay results as given in PMC10668032.
This is one part of the list. At the low end of the ranking the order means little.

Target: SIX1 homeodomain (reference allele) (UniProt Q15475)
Experiment: universal protein binding microarray
Conditions: Universal all-10-mer PBM (8x60K, AMADID 030236), 300 nM GST-tagged protein, Alexa Fluor 488 anti-GST; buffer, salt, pH and temperature not stated; high values mean tight binding; most listed sequences are background and not binding sites; double strand, one strand shown

**Q.** TCTATCCA was tested. Which binding signal did it give?
**A.** Its binding signal is 0.101 E-score.

**Q.** With AACAGGTT as the sequence, how does the binding signal read?
**A.** The binding signal was -0.154 E-score.

**Q.** With TAAAAGTA as the sequence, how does the binding signal read?
**A.** The binding signal was -0.0867 E-score.

**Q.** With AAGAGGCT as the sequence, how does the binding signal read?
**A.** Its binding signal is -0.27 E-score.

**Q.** Which binding signal does the source give for ACTTCCAG here?
**A.** The binding signal was -0.185 E-score.

**Q.** With CCTAGCGA as the sequence, how does the binding signal read?
**A.** Its binding signal is -0.205 E-score.

**Q.** ATATAGAC was tested. Which binding signal did it give?
**A.** The binding signal was 0.116 E-score.

**Q.** With AGTAATAT as the sequence, how does the binding signal read?
**A.** Its binding signal is 0.236 E-score.

**Q.** CCACGAGG was tested. Which binding signal did it give?
**A.** Its binding signal is -0.129 E-score.

**Q.** ACACTAGT was tested. Which binding signal did it give?
**A.** Its binding signal is 0.128 E-score.

**Q.** With ACACCCAC as the sequence, how does the binding signal read?
**A.** Its binding signal is 0.221 E-score.

**Q.** How did the binding signal turn out when GGGCCTTA was run?
**A.** Its binding signal is -0.269 E-score.

**Q.** AAGCCAAA was tested. Which binding signal did it give?
**A.** Its binding signal is -0.268 E-score.

**Q.** With CGCTCTAA as the sequence, how does the binding signal read?
**A.** Its binding signal is -0.14 E-score.

**Q.** How did the binding signal turn out when AGATTGCT was run?
**A.** The binding signal was 0.141 E-score.

**Q.** How did the binding signal turn out when CTTGGATA was run?
**A.** Its binding signal is 0.236 E-score.

**Q.** Which binding signal does the source give for GTTGAACA here?
**A.** Its binding signal is -0.138 E-score.

**Q.** AACTCGCT was tested. Which binding signal did it give?
**A.** The binding signal was -0.0391 E-score.

**Q.** How did the binding signal turn out when GTATCCAC was run?
**A.** The binding signal was 0.395 E-score.

**Q.** For GGACCTTA, which binding signal is on record?
**A.** The binding signal was -0.122 E-score.

**Q.** ACTACACC was tested. Which binding signal did it give?
**A.** The binding signal was 0.336 E-score.

**Q.** For AACAGCCG, which binding signal is on record?
**A.** Its binding signal is -0.172 E-score.

**Q.** How did the binding signal turn out when CCAGAACG was run?
**A.** The binding signal was -0.0567 E-score.

**Q.** With AAAATCAT as the sequence, how does the binding signal read?
**A.** The binding signal was 0.0422 E-score.

**Q.** With CAAGATGG as the sequence, how does the binding signal read?
**A.** The binding signal was -0.136 E-score.

**Q.** For AAAGGATA, which binding signal is on record?
**A.** The binding signal was 0.334 E-score.

**Q.** With ATCGAGCA as the sequence, how does the binding signal read?
**A.** Its binding signal is -0.00513 E-score.

**Q.** With AACAAGGT as the sequence, how does the binding signal read?
**A.** Its binding signal is -0.122 E-score.

**Q.** With AAAACGGC as the sequence, how does the binding signal read?
**A.** The binding signal was -0.135 E-score.

**Q.** How did the binding signal turn out when AGCTTGTG was run?
**A.** Its binding signal is -0.0614 E-score.

**Q.** CTATTGGA was tested. Which binding signal did it give?
**A.** Its binding signal is -0.0185 E-score.

**Q.** Which binding signal does the source give for TCGGTAGA here?
**A.** The binding signal was 0.0154 E-score.

**Q.** Which binding signal does the source give for ATAATACG here?
**A.** Its binding signal is 0.385 E-score.

**Q.** CATGCTTC was tested. Which binding signal did it give?
**A.** The binding signal was -0.11 E-score.

**Q.** With AAGTTTTA as the sequence, how does the binding signal read?
**A.** The binding signal was -0.178 E-score.

**Q.** For ACGTATCC, which binding signal is on record?
**A.** Its binding signal is 0.377 E-score.

**Q.** For AAGTGAGG, which binding signal is on record?
**A.** The binding signal was -0.144 E-score.

**Q.** For GGGGCCTA, which binding signal is on record?
**A.** Its binding signal is -0.0563 E-score.

**Q.** How did the binding signal turn out when CGTCCCCC was run?
**A.** The binding signal was -0.144 E-score.

**Q.** How did the binding signal turn out when GGTGCTCA was run?
**A.** Its binding signal is -0.109 E-score.

**Q.** Which binding signal does the source give for GGCCAAAC here?
**A.** The binding signal was -0.226 E-score.

**Q.** Which binding signal does the source give for GCCTTGTA here?
**A.** The binding signal was -0.202 E-score.

**Q.** How did the binding signal turn out when ATATTTTA was run?
**A.** The binding signal was 0.0479 E-score.

**Q.** How did the binding signal turn out when ACCGACCC was run?
**A.** Its binding signal is 0.0779 E-score.

**Q.** CACATGAA was tested. Which binding signal did it give?
**A.** Its binding signal is 0.00571 E-score.

**Q.** For GCGCTACA, which binding signal is on record?
**A.** Its binding signal is -0.201 E-score.

**Q.** With CACGACCC as the sequence, how does the binding signal read?
**A.** The binding signal was 0.0737 E-score.

**Q.** With ACTGGGTG as the sequence, how does the binding signal read?
**A.** The binding signal was 0.159 E-score.

**Q.** How did the binding signal turn out when GGCTGGAC was run?
**A.** Its binding signal is -0.302 E-score.

**Q.** With CATACTCG as the sequence, how does the binding signal read?
**A.** The binding signal was 0.0406 E-score.

**Q.** Which binding signal does the source give for CAGCCCAG here?
**A.** Its binding signal is -0.0872 E-score.

**Q.** GAAAAGCC was tested. Which binding signal did it give?
**A.** The binding signal was -0.146 E-score.

**Q.** How did the binding signal turn out when AAACATAC was run?
**A.** Its binding signal is 0.0509 E-score.

**Q.** GGACAAAC was tested. Which binding signal did it give?
**A.** The binding signal was -0.284 E-score.

**Q.** For AACTCCTA, which binding signal is on record?
**A.** The binding signal was -0.12 E-score.

**Q.** With AGCAGAGC as the sequence, how does the binding signal read?
**A.** The binding signal was -0.217 E-score.

**Q.** Which binding signal does the source give for CGAGATCA here?
**A.** Its binding signal is 0.287 E-score.

**Q.** Which binding signal does the source give for AATTCGAA here?
**A.** Its binding signal is -0.226 E-score.

**Q.** With CATGAATG as the sequence, how does the binding signal read?
**A.** The binding signal was -0.0161 E-score.

**Q.** CGCTAAAA was tested. Which binding signal did it give?
**A.** Its binding signal is -0.135 E-score.

**Q.** With AGTCCGCA as the sequence, how does the binding signal read?
**A.** The binding signal was -0.185 E-score.

**Q.** ATAAGATC was tested. Which binding signal did it give?
**A.** The binding signal was 0.222 E-score.

**Q.** AGTAGTTG was tested. Which binding signal did it give?
**A.** The binding signal was -0.0451 E-score.

**Q.** For AACTTCCC, which binding signal is on record?
**A.** Its binding signal is -0.177 E-score.

**Q.** How did the binding signal turn out when ACCACAAG was run?
**A.** The binding signal was -0.0734 E-score.

**Q.** For ACCAATTA, which binding signal is on record?
**A.** The binding signal was -0.0296 E-score.

**Q.** Which binding signal does the source give for CTATATAC here?
**A.** The binding signal was 0.275 E-score.

**Q.** How did the binding signal turn out when ATCCCTTA was run?
**A.** The binding signal was 0.278 E-score.

**Q.** How did the binding signal turn out when CTCGCCGA was run?
**A.** The binding signal was -0.0385 E-score.

**Q.** For AACTTTGT, which binding signal is on record?
**A.** The binding signal was -0.264 E-score.

**Q.** With ATCACGGA as the sequence, how does the binding signal read?
**A.** Its binding signal is 0.288 E-score.

**Q.** With CGACCAAG as the sequence, how does the binding signal read?
**A.** The binding signal was -0.0073 E-score.

**Q.** How did the binding signal turn out when CAAAATTG was run?
**A.** The binding signal was -0.139 E-score.

**Q.** AAATCCGA was tested. Which binding signal did it give?
**A.** The binding signal was 0.101 E-score.

**Q.** How did the binding signal turn out when GCTGCAAC was run?
**A.** The binding signal was -0.0866 E-score.

**Q.** With GTTTAAGA as the sequence, how does the binding signal read?
**A.** Its binding signal is -0.153 E-score.

**Q.** With ATTGTCCA as the sequence, how does the binding signal read?
**A.** Its binding signal is -0.0461 E-score.

**Q.** How did the binding signal turn out when CTTCGGTA was run?
**A.** The binding signal was -0.184 E-score.

**Q.** With GCTCTCCA as the sequence, how does the binding signal read?
**A.** Its binding signal is -0.104 E-score.

**Q.** For ACCTCCAG, which binding signal is on record?
**A.** Its binding signal is -0.0338 E-score.

**Q.** For ATGCCAGG, which binding signal is on record?
**A.** Its binding signal is 0.161 E-score.

**Q.** ACCGGGGC was tested. Which binding signal did it give?
**A.** Its binding signal is -0.0943 E-score.

**Q.** Which binding signal does the source give for ATGCAATA here?
**A.** Its binding signal is 0.192 E-score.

**Q.** For ATTCAATG, which binding signal is on record?
**A.** Its binding signal is -0.0908 E-score.

**Q.** AGATAACT was tested. Which binding signal did it give?
**A.** The binding signal was 0.0409 E-score.

**Q.** Which binding signal does the source give for AGTCAATC here?
**A.** Its binding signal is -0.0728 E-score.

**Q.** GTAGCAAA was tested. Which binding signal did it give?
**A.** The binding signal was -0.256 E-score.

**Q.** With AGTGCCTA as the sequence, how does the binding signal read?
**A.** The binding signal was -0.0693 E-score.

**Q.** ATACTAAT was tested. Which binding signal did it give?
**A.** Its binding signal is 0.29 E-score.

**Q.** How did the binding signal turn out when ACATAGCA was run?
**A.** Its binding signal is -0.0739 E-score.

**Q.** How did the binding signal turn out when GTGGGTGA was run?
**A.** The binding signal was -0.0076 E-score.

**Q.** For CGAACACA, which binding signal is on record?
**A.** The binding signal was -0.101 E-score.

**Q.** Which binding signal does the source give for GAGCTCGC here?
**A.** The binding signal was 0.0177 E-score.

**Q.** How did the binding signal turn out when AACACCCC was run?
**A.** The binding signal was 0.268 E-score.

**Q.** ATCCCCCG was tested. Which binding signal did it give?
**A.** The binding signal was 0.403 E-score.

**Q.** How did the binding signal turn out when CGATAGCG was run?
**A.** The binding signal was 0.228 E-score.

**Q.** How did the binding signal turn out when CCCGGGGA was run?
**A.** The binding signal was 0.13 E-score.

**Q.** Which binding signal does the source give for AAGCTAGC here?
**A.** The binding signal was -0.02 E-score.

**Q.** How did the binding signal turn out when ATCACCTC was run?
**A.** Its binding signal is 0.268 E-score.

**Q.** Which binding signal does the source give for GCCGAACC here?
**A.** The binding signal was -0.0451 E-score.

**Q.** Which binding signal does the source give for GTAGTGTA here?
**A.** The binding signal was 0.131 E-score.

**Q.** How did the binding signal turn out when ACAAAGTC was run?
**A.** The binding signal was -0.365 E-score.

**Q.** For TAATAGAA, which binding signal is on record?
**A.** Its binding signal is 0.0619 E-score.

**Q.** With GGTAGGAA as the sequence, how does the binding signal read?
**A.** Its binding signal is -0.222 E-score.

**Q.** For ACGGTGCT, which binding signal is on record?
**A.** The binding signal was -0.0983 E-score.

**Q.** For GCGATATA, which binding signal is on record?
**A.** Its binding signal is 0.399 E-score.

**Q.** How did the binding signal turn out when GCTGCTGA was run?
**A.** Its binding signal is -0.102 E-score.

**Q.** How did the binding signal turn out when ATTTGTGA was run?
**A.** Its binding signal is 0.037 E-score.

**Q.** CTGCATAA was tested. Which binding signal did it give?
**A.** Its binding signal is -0.138 E-score.

**Q.** Which binding signal does the source give for CGGGCGAC here?
**A.** The binding signal was -0.0496 E-score.
